Consider 107 molecules from PubChem BioAssay AID488969 (Vanderbilt High Throughput Screening Facility, 2010).

Whole data set: some 110,000 compounds, median “z-score” near -0.1, cut for the highest 2% near 2. The list shows a part of the results. The source made the active and inactive calls.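 How the source made its calls: active means z-score in the third read window above 3 or below -3; inactive means the rest.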

The target in the assay is Metabotropic glutamate receptor 8 (Rattus norvegicus) (UniProt P70579). The assay is described as follows: rat mGluR8 modulators via GIRK flux, primary screen, cell-based, thallium flux, HTS (AID 488969). Conditions: HEK293 rat mGluR8, GIRK (G protein-gated inwardly rectifying potassium channel) thallium flux, FluoZin2; at 10 µM; stronger effect = higher value; submaximal glutamate (EC20) added with thallium.
Sequence of UniProt P70579 (P70579 whole entry, looked up): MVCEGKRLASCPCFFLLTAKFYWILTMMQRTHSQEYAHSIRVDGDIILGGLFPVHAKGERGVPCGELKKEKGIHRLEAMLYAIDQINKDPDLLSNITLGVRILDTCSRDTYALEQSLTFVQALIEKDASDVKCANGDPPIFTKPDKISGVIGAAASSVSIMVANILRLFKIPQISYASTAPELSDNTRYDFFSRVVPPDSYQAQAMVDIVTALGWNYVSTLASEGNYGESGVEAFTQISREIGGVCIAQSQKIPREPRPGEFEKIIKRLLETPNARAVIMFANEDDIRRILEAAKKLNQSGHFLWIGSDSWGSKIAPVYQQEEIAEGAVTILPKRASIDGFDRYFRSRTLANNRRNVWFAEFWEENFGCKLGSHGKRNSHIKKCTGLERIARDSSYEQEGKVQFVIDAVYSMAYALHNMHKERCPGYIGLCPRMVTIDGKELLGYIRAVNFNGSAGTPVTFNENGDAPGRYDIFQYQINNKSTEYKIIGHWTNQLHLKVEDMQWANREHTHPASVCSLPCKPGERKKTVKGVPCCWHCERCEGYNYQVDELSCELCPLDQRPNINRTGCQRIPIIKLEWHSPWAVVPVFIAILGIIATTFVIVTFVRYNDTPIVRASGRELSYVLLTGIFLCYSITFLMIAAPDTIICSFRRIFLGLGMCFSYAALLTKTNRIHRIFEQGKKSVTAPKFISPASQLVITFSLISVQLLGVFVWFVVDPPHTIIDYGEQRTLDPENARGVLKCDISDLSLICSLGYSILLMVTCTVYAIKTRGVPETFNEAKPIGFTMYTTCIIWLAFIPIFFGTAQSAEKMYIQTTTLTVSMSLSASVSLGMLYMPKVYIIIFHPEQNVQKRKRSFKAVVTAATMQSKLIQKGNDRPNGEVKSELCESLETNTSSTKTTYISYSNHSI
On to `O=C(CSCc1ccc(F)cc1)Nc1nc2c(s1)CCCC2`, for which the z-score turned out to be 0.848.

In the case of `COc1ccccc1-c1cc(C(=O)NC(C)c2ccccc2)no1` (configuration not stated), the z-score is -0.492.

The molecule `COc1cccc(-c2cc(C(=O)N3CCN(Cc4ccccc4)CC3)no2)c1` displayed a z-score of 0.395.

`CCCc1nc(SCC(=O)Nc2nc3c(s2)CCCC3)c2ccccc2n1` displayed a z-score of 0.532.

On to `COc1ccc2[nH]c(C(=O)O)c(CCC(=O)O)c2c1`, for which the z-score is -0.0774.

`O=C(NCc1cc(C(F)(F)F)cc(C(F)(F)F)c1)C12CN(Cc3ccccc3)CC1C(c1cccc([N+](=O)[O-])c1)=NO2` (configuration not stated) came in with a z-score of -0.3.

In turn, `Cc1ccc(Oc2nc3ccccc3n3cccc23)cc1` returned a z-score of 0.0653.

For the molecule `CC(=O)Oc1cccc(N2C(=O)C3CC=CCC3C2=O)c1` (configuration not stated), the z-score is -0.543.

Molecule `Cc1ccccc1OCC(=O)NN1Cc2ccccc2C1=N` came in with a z-score of 1.18.

In turn, `N#CC(C(=O)C1CCCCC1)c1nc2ccccc2[nH]1` (configuration not stated) showed a z-score of 0.179.

In turn, `CCc1nnc(NC(=O)C2CCN(c3nccc(C)n3)CC2)s1` returned a z-score of 0.111.

`COc1nc(N(C)C)nc(N2CC(=O)N(CCNS(=O)(=O)c3ccc(C)cc3)C2=N)n1` registered a z-score of -0.0633.

`COc1ccc(C(=O)c2nc3c(n2O)CCCC3)cc1OC` came in with a z-score of 0.301.

With `Cc1ccccc1NCC(=O)N/N=C/C(Br)=C/c1ccccc1`, the z-score is -0.294.

`C#CC[N+]1(CC#Cc2ccc(C#CC[N+]3(CC#C)CCOCC3)cc2)CCOCC1` yielded a z-score of 0.0885.

Molecule `CC1=C(CC/C(C)=N/NC(N)=S)C(C)(C)CCC1` registered a z-score of 1.85.

`O=C(Nc1ccc2c(c1)nc1n2CCN(Cc2ccccc2)C1)c1cccs1` yielded a z-score of -1.44.

In turn, `S=c1[nH]ncn1/N=C/c1ccccc1` showed a z-score of -0.079.

Take `Cc1c(Cl)c([N+](=O)[O-])nn1CC(=O)NCc1ccco1`: the z-score is -0.136.

Molecule `O=C(NCc1ccccc1)C12CN(Cc3ccccc3)CC1C(c1cccc([N+](=O)[O-])c1)=NO2` (configuration not stated) registered a z-score of -0.327.

`O=C(Cc1ccc(Cl)cc1Cl)OCC(=O)c1ccc[nH]1`: the z-score was 0.0807.

Turning to `CCN1CCN(C(=O)c2cn(CCOC)c(=O)c3c2c2ccccc2n3C)CC1`, the z-score turned out to be 0.277.

`COc1ccc(C2(CNC(=O)CCC(=O)O)CCCC2)cc1` returned a z-score of 0.482.

Turning to `Cc1ccnc(NS(=O)(=O)c2ccc(NC(=O)Cc3ccccc3)cc2)n1`, the z-score was -0.209.

`COc1ccc(-c2nc3nc(C)c(Cc4ccccc4)c(=O)n3[nH]2)cc1`: the z-score is 0.0518.

As for `CCOC(=O)c1c(-c2ccc(-c3ccccc3)cc2)csc1NC(=O)CCN1CCOCC1`, the z-score was -0.139.

In turn, `O=C(CCNC(=O)c1ccccc1)OCN1C(=O)c2ccccc2C1=O` displayed a z-score of -0.16.

`O=C(CCn1c(=S)[nH]c2cc3c(cc2c1=O)OCO3)N1CCN(C2CCCCC2)CC1` came in with a z-score of -0.372.

On to `Cc1cccc(Nc2nnc(SCC(=O)Nc3cccc(S(=O)(=O)N4CCCCC4)c3)s2)c1`, for which the z-score was -0.33.

Turning to `Cc1cc2c(cc1C)NC(=O)CC(C(F)(F)C(F)(F)C(F)(F)F)=N2`, the z-score is -0.139.

For `Cc1cc(C)c(NC(=O)c2ccc(CNS(=O)(=O)c3cc(C(F)(F)F)ccc3Cl)cc2)c(C)c1`, the z-score was -0.0884.

`CN(C)S(=O)(=O)c1ccc2c(c1)C(CC(=O)O)OC2=O` (configuration not stated) displayed a z-score of 0.184.

As to `Cc1ccccc1NS(=O)(=O)c1cc(C(=O)NCc2ccco2)ccc1C`, the z-score is -0.101.

With `C=C(C)Cn1c(SCC(=O)N/N=C/c2ccccc2)nc2ccccc2c1=O`, the z-score was -2.14.

For `CCOC(=O)C1CCCN(C(=O)Cc2ccc(C)cc2)C1` (configuration not stated), the z-score is -0.33.

The molecule `O=C(CSCC(=O)c1ccccc1)Nc1ccccc1Cl` showed a z-score of -0.358.

Regarding `O=C(Cn1c(C(=O)N2CCN(C3CCCC3)CC2)cc2sccc21)c1ccccc1`, the z-score stood at 0.0173.

The molecule `O=C(CCc1nc2ccccc2c(=O)[nH]1)OCc1ccc(-c2ccccc2)cc1` yielded a z-score of -0.0224.

On to `CCN1CCN(CCn2c(=S)[nH]c3cc4c(cc3c2=O)OCO4)CC1`, for which the z-score was 0.106.

`CCc1noc(C)c1C(=O)Nc1nc(-c2ccc(Cl)cc2Cl)c(C)s1`: the z-score is -0.529.

`Cc1nc(=S)c2ccccc2[nH]1` returned a z-score of 1.49.

`CCOc1ccccc1C(=O)N(Cc1cccs1)C1CCS(=O)(=O)C1` (configuration not stated) returned a z-score of -0.586.

`O=C1C(=O)N(CCCN2CCOCC2)C(c2cccs2)/C1=C(/O)c1ccc2c(c1)OCO2` (configuration not stated): the z-score worked out at 0.367.

On to `Cc1cc(NC(=O)CSc2ccccc2)no1`, for which the z-score was -0.0515.

Molecule `CCCCOc1ccc(Cl)cc1CSc1n[nH]c(C)n1` came in with a z-score of -0.293.

Turning to `CC(C)CCNC(=O)C(c1cccnc1)N(CCc1ccccc1)C(=O)Cn1nnc2ccccc21` (configuration not stated), the z-score amounted to 0.555.

As for `O=C(COC(=O)c1cccnc1)Nc1ccc(F)cc1`, the z-score amounted to 0.1.

`CCOc1cccc(C(=O)Nc2cc(-c3nn4c(C)nnc4s3)ccc2C)c1` showed a z-score of 0.356.

Take `CCOC(=O)COc1ccc(S(=O)(=O)N2CCN(c3ccc(F)cc3)CC2)cc1`: the z-score is -0.127.

As for `Cc1ccc(-n2c(SCC(N)=O)nc3c(c2=O)C2(CCCC2)Cc2ccccc2-3)cc1`, the z-score is -0.348.

`CCn1c(SCC(=O)NCc2ccc3c(c2)OCO3)nnc1-c1cccs1` returned a z-score of -0.0658.

For `O=C(CN1C(=O)NC2(CCCCC2)C1=O)Nc1ccc(S(=O)(=O)N2CCOCC2)cc1`, the z-score is -0.0303.

On to `CC(=O)c1ccc(N2CCN(C(=O)C3CCC3)CC2)cc1`, for which the z-score was determined as 0.464.

Molecule `COc1ccccc1NC(=O)C1=C(C)Nc2nc(-c3cccs3)nn2C1c1cccnc1` (configuration not stated) had a z-score of -0.482.

`C=C(C)c1cccc(C(C)(C)NC(=O)NC(c2ccccc2)c2ccc(OC)cc2)c1` (configuration not stated) gave a z-score of -0.23.

`CCCc1[nH]nc2c1C(c1ccc(OC)c(Cn3nnc4ccccc43)c1)C(C#N)=C(N)O2` (configuration not stated): the z-score is -0.88.

With `CCOc1ccc(C(=O)NC(=S)Nc2cccnc2)cc1`, the z-score is -0.435.

`C#CCn1c(=NC(=O)CN2C(=O)CCC2=O)sc2cc(S(N)(=O)=O)ccc21` registered a z-score of -0.113.

For `Cc1ccc(S(=O)(=O)N(C)c2cc(S(=O)(=O)N3CCC(C)CC3)c(C)cc2C)cc1`, the z-score was -0.338.

With `CC1(C)Cc2c(c(N3CCOCC3)nc3sc4c(NCc5ccccc5)nnnc4c23)CS1`, the z-score was -0.325.

In turn, `COc1cccc(Cn2c(NCc3ccccn3)nc3c2c(=O)n(C)c(=O)n3C)c1` had a z-score of -0.908.

Consider `O=C(Oc1ccccc1)c1cc2ccccc2o1`, for which the z-score was found to be 2.68.

For `COc1ccc(N2CCN(Cc3nc4c(c(=O)n(C)c(=O)n4C)n3C(C)C(C)=O)CC2)cc1` (configuration not stated), the z-score was determined as 0.133.

In turn, `COc1ccc2oc(-c3ccc(C)c(NC(=O)c4ccc(N5CCOCC5)c([N+](=O)[O-])c4)c3)nc2c1` showed a z-score of -0.0248.

The molecule `CCn1c(CNc2nc3ccccc3n2C(C)C)nc2ccccc21` had a z-score of -0.319.

Turning to `CCOC(=O)c1cc(-c2ccc(OC(F)F)cc2)nc2c1c(=O)[nH]c(=O)n2C`, the z-score is -0.204.

In turn, `C/C(=N/NC(=O)Cc1cccn1C)c1ccccc1` showed a z-score of -0.136.

With `CCOC(=O)c1ccc(Nc2ncnc3ccc(C)cc23)cc1`, the z-score was -0.372.

`Cc1cc(-c2ccccc2)c(C#N)c(N)n1` gave a z-score of 0.646.

With `COCc1nnc(NC(=O)c2cc(C(=O)OC)cc([N+](=O)[O-])c2)s1`, the z-score was -0.115.

In turn, `COc1ccc(Nc2nc(N)nc(CN3CCc4ccccc4C3)n2)cc1` yielded a z-score of -0.308.

Molecule `Cc1cc(C(=O)NNC(=S)NCC(C)C)no1` gave a z-score of -0.0668.

For `CCCCCOC(=O)C1[C@H]2C(=O)N(CCCOC)C[C@]23C=C[C@H]1O3` (some centres not stated), the z-score worked out at 0.0933.

`O=C(CSc1ccc2nnc(CCNS(=O)(=O)c3ccccc3)n2n1)Nc1nc2ccccc2s1` yielded a z-score of -0.158.

Molecule `COc1ccc(CNS(=O)(=O)c2ccc(OC)cc2)cc1` came in with a z-score of 0.775.

The molecule `Cc1c(C(=O)Nc2ccc(Cl)cc2)c2ccccn2c1C(=O)c1ccc(F)cc1` came in with a z-score of 0.165.

`Cc1ccc(NC(=O)COC(=O)C2(c3ccc(Cl)cc3)CCCC2)cc1` registered a z-score of -0.108.

In turn, `COC(=O)CN(c1ccc(OC)cc1)S(=O)(=O)c1c(C)noc1C` displayed a z-score of -0.0349.

The molecule `CCOC(=O)c1sc2nc(C3CC3)cc(-c3ccc(OC)cc3)c2c1N` yielded a z-score of 0.139.

Regarding `COC(=O)CCN(C(=O)C12CC3CC(CC(C3)C1)C2)c1ccccn1`, the z-score was 0.0508.

For the molecule `CC1=CCC2C(=O)N(c3nc(C)cc(C)n3)C(=O)C2C1` (configuration not stated), the z-score was -0.376.

Consider `COc1ccc(OC)c(N2C(=O)CC(Cc3ccc(C)cc3)C2=O)c1` (configuration not stated), for which the z-score is -0.505.

Molecule `O=S(=O)(c1ccccc1)N(CC(O)CN1CCCCC1)c1ccccc1` (configuration not stated) displayed a z-score of 0.146.

`N#CCCn1cc(/C=N/O)c(-c2ccccc2)n1` registered a z-score of 0.0606.

In turn, `CC(C)C(NC(=O)COc1ccccc1)C(=O)O` (configuration not stated) registered a z-score of 0.0908.

Molecule `Oc1ccc(-c2nc(=S)[nH][nH]2)cc1` gave a z-score of 0.905.

For the molecule `Cc1ccc(-n2[nH]c(C)c(C=Nc3ccc(S(=O)(=O)Nc4nccs4)cc3)c2=O)cc1`, the z-score is -0.363.

As to `Cc1n[nH]c(=S)n(/N=C/c2ccccn2)c1=O`, the z-score was found to be 0.394.

Molecule `CCOC(=O)C1=C(N)OC2=C(C(=O)CC(C)(C)C2)C1c1ccoc1` (configuration not stated) returned a z-score of -0.174.

In turn, `O=C(Nc1ccc(N2CCN(C(=O)c3ccccc3)CC2)cc1)c1ccc(Br)o1` returned a z-score of -0.352.

Regarding `CC(C)(CO)NCc1cc(Br)ccc1OCc1ccccc1`, the z-score was determined as 0.457.

In turn, `O=C1C=CN(C(=O)Oc2ccccc2)CC1` came in with a z-score of 0.0477.

In turn, `O=C(CN1CCCCCC1)Nc1ccccc1F` returned a z-score of -0.0393.

In the case of `CCCOc1ccc(C(=O)NCCO)cc1`, the z-score was -0.137.

`CSc1ccccc1-c1nnc(-c2ccc(Cl)cc2Cl)o1` gave a z-score of -0.19.

In the case of `O=C(CNC(=O)c1ccccc1F)OCC(=O)N1CCCCC1`, the z-score is -0.254.

With `CCCn1c(N)c(N2CCCCC2)c(=O)n(CC(=O)Nc2ccc(OC(F)(F)F)cc2)c1=O`, the z-score was -0.235.

Turning to `CC1(C)CC(=O)C2=C(C1)N(Cc1ccc(F)cc1)C(=O)C2(NC(=O)c1cccnc1)C(F)(F)F` (configuration not stated), the z-score was -0.113.

`O=C(Cc1ccccc1)NC(NCCCN1CCOCC1)(C(F)(F)F)C(F)(F)F` showed a z-score of 0.0609.

Turning to `Cc1ccc(S(=O)(=O)NCC23C=CC(O2)C2C(=O)N(c4ccccc4)C(=O)C23)cc1` (configuration not stated), the z-score stood at 0.438.

For the molecule `Cc1ccccc1C(=O)NNC(=O)C(=O)Nc1cccc(Cl)c1C`, the z-score is active: 6.02.

For `Cc1csc(NC(=O)C2COc3ccccc3O2)n1` (configuration not stated), the z-score was found to be 1.13.

As to `CCCCCCCC(=O)N/N=C/c1ccco1`, the z-score was found to be 0.0471.

As to `O=C(CN(c1ccc(Cl)c(Cl)c1)S(=O)(=O)c1ccccc1)N1CCc2ccccc2C1`, the z-score is -0.183.

For `CCN(CC)S(=O)(=O)c1cccc(C(=O)N[C@H](C(=O)NCc2ccc(Cl)cc2)C(C)C)c1`, the z-score was -0.475.

In turn, `NCCN=C1NS(=O)(=O)c2ccccc21` yielded a z-score of -0.228.

For the molecule `COc1ccc(/C=C/C(=O)NCC(=O)N/N=C/c2cc(Br)ccc2OCc2ccccc2)cc1`, the z-score is -0.325.
